Where a chain is given by its changes, count along the chain named. Names may count otherwise. These are yes or no findings as the source states them, for the method shown. For some assays here: In cells and extracts the contact can be indirect. Some results given as binding are weak or reduced against the parent protein; the word gives no strength. For some assays here: Tags and fused reporters may be left off the sequences shown. Blank lines part the entries; values can stand above or below the binder they belong to.
Experiments:
IF1-CT (A44-D81) (human) = target: T1, IF1-CT (A44-D81) (human) (UniProt Q9UII2); test: NMR titration; 1H-15N SOFAST-HMQC of 15N-labelled IF1-CT without and with 12-fold molar excess of unlabelled OSCP-NT or OSCP-CT; both purified
T1 sequence: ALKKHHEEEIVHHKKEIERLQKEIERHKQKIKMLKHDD

The chains behind the UniProt entries cited, without tags or fusion partners. Residues count along the entry.
UniProt P56480, residues 47-529: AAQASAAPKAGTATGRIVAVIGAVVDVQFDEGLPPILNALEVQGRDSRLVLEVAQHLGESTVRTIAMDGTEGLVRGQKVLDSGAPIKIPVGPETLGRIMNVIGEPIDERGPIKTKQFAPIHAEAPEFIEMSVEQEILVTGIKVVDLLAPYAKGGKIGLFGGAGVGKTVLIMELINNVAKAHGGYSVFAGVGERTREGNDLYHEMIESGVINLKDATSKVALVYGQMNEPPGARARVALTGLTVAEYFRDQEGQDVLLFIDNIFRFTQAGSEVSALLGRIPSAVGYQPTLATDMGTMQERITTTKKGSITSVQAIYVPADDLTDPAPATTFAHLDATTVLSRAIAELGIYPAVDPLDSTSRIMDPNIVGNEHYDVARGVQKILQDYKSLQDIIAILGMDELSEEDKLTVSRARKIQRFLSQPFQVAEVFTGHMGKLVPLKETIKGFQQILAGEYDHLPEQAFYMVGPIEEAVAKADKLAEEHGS
UniProt P05496, residues 62-136: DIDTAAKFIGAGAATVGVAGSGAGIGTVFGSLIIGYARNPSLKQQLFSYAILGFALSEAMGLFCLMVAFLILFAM

IF1-NT (G1-E40) (human) = target: T2, IF1-NT (G1-E40) (human) (UniProt Q9UII2); test: NMR titration; 1H-15N SOFAST-HMQC of 15N-labelled IF1-NT without and with 15-fold molar excess of unlabelled OSCP-NT or OSCP-CT; for OSCP-NT: 30 μM IF1-NT, 450 μM OSCP-NT, 50 mM phosphate, 300 mM NaCl, pH 7.0, 7 °C; both purified
T2 sequence: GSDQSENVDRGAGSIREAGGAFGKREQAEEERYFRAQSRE

[1] = target: β subunit of ATP synthase, endogenous in MEFs (mouse (endogenous in MEFs)) (UniProt P56480); test: co-IP; β subunit immunoprecipitated (protein G dynabeads) from permeabilized MEFs (pcDNA3.1, IF1 WT, IF1 Y33R) kept in ATP hydrolysis buffer; blot for β and IF1
[2] = substrate: T3, OSCP subunit of ATP synthase, endogenous in MEFs (mouse (endogenous in MEFs)) (UniProt Q9DB20); test: co-IP; OSCP subunit immunoprecipitated (protein G dynabeads) from permeabilized MEFs (pcDNA3.1, IF1 WT, IF1 Y33R) kept in state 3 buffer; blot for OSCP and IF1
T3 sequence: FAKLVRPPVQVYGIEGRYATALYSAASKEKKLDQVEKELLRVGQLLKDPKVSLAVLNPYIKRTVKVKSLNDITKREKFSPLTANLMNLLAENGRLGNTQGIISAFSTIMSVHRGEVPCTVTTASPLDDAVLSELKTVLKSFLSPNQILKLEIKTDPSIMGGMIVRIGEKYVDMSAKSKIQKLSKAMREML

[3] = target: T4, ATP synthase oligomycin sensitivity conferring protein (OSCP) (human (endogenous in HeLa)) (UniProt P48047); test: co-IP; OSCP immunoprecipitated (anti-OSCP, protein G dynabeads) from freshly prepared HeLa mitochondria kept in state 3 (ATP synthesis) buffer; IP buffer with 0.5% Triton X-100, 0.25% SDS, pH 7.4; blot for IF1
T4 sequence: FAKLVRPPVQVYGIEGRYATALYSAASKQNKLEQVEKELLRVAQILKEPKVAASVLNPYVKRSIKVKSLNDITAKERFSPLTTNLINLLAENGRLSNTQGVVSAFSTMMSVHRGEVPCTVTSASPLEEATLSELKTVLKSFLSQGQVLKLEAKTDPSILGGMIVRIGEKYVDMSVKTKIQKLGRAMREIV

[4] = target: T4, ATP synthase oligomycin sensitivity conferring protein (OSCP) (human (endogenous in HeLa)); test: co-IP; OSCP or β subunit immunoprecipitated (protein G dynabeads) from permeabilized HeLa cells kept in state 3 buffer; IP buffer with 0.5% Triton X-100, 0.25% SDS, pH 7.4; blot for IF1; also with increasing doses of Bz423 (IF1 displaced dose-dependently)
[5] = target: T5, f subunit of ATP synthase (human (endogenous in HeLa)) (UniProt P56134); test: proximity ligation; Duolink In Situ Red; CTR and IF1 KO HeLa cells fixed with 2% paraformaldehyde, permeabilized with 0.15% Triton X-100; pairs of mouse and rabbit primary antibodies; red dots per nucleus
T5 sequence: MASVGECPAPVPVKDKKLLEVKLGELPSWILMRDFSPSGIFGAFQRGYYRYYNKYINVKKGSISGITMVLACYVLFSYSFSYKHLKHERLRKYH

[6] = target: c subunit of ATP synthase (human (endogenous in HeLa)) (UniProt P05496); test: as above
[7] = target: T4, ATP synthase oligomycin sensitivity conferring protein (OSCP) (human (endogenous in HeLa)); test: as above

B1: OSCP-CT (G114-V190) (domain or fragment, UniProt P48047 137-213)
chain: GEVPCTVTSASPLEEATLSELKTVLKSFLSQGQVLKLEAKTDPSILGGMIVRIGEKYVDMSVKTKIQKLGRAMREIV
binding (IF1-CT (A44-D81) (human)): no binding (tested: 12-fold molar excess of OSCP-CT)
binding (IF1-NT (G1-E40) (human)): no binding (tested: 15-fold molar excess of OSCP-CT)

binding [1]: binds
binding [2]: binds
B2: IF1, endogenous in mouse embryonic fibroblasts (protein, UniProt O35143 26-106)
chain: VSDSSDSMDTGAGSIREAGGAFGKREKAEEDRYFREKTKEQLAALRKHHEDEIDHHSKEIERLQKQIERHKKKIQQLKNNH

binding [1]: binds
binding [2]: binds
B3: human IF1 wild type overexpressed in MEFs (IF1 WT) (protein, UniProt Q9UII2-1 26-106)
chain: GSDQSENVDRGAGSIREAGGAFGKREQAEEERYFRAQSREQLAALKKHHEEEIVHHKKEIERLQKEIERHKQKIKMLKHDD

binding [3]: binds
binding [4]: binds
binding [5]: no binding
binding [6]: no binding
binding [7]: binds
B4: inhibitor factor 1 (IF1) (protein, UniProt Q9UII2 26-106)
chain: B3 chain

binding [1]: no binding
binding [2]: binds
B5: human IF1 mutant Y33R overexpressed in MEFs (IF1 Y33R) (protein, UniProt Q9UII2-1 26-106)
chain: B3 chain with Y33R

B6: OSCP-NT (R6-G114) (domain or fragment, UniProt P48047 29-137)
chain: RPPVQVYGIEGRYATALYSAASKQNKLEQVEKELLRVAQILKEPKVAASVLNPYVKRSIKVKSLNDITAKERFSPLTTNLINLLAENGRLSNTQGVVSAFSTMMSVHRG
binding (IF1-CT (A44-D81) (human)): no binding (tested: 12-fold molar excess of OSCP-NT)
